# According to PubChem BioAssay (NCATS):
# The shares of active, inactive and inconclusive entries below differ from those in the screen. For some assays here: Where the call is inconclusive, the potency comes from a doubtful curve fit. Calls of active or inactive are those of the source. Unless noted, calls follow the shape of the dose curve; as a rule, active = well fitted curve in either direction with a large enough effect (not every such curve was filed as active); inconclusive = small, poorly fitted or top-dose-only effect, or another doubt; inactive = flat fitted curve, though single readings scatter.
# Tests used:
# [1] = AP1 Signaling Pathway (AID 357); conditions: ME-180 AP-1-bla reporter, EGF-induced, beta-lactamase ratio, 5 h; at 17.2 µM (top of the series) unless noted;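 also: ME-180 reporter cells stimulated with EGF at its EC50 level; top concentration of the series differs between compounds; % is scaled to controls: 0 for no effect and ±100 for the full control effect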
# Procedure, shortened: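 A ratiometric CCF4 readout (405 nm excitation; 460 and 530 nm emission) quantified AP-1-driven beta-lactamase in ME-180 cells after 5 h with compound and EC50 EGF; AC50 values were derived for activators and inhibitors.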
# [2] = NFAT Signaling Pathway (AID 444); conditions: Jurkat NFAT-bla M1, carbachol, beta-lactamase ratio, 5 h;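 also: carbachol stimulus at about its EC50 of 1 µM final; % is scaled to controls: 0 for no effect and ±100 for the full control effect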
# Procedure, shortened: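 Jurkat cells carrying an NFAT-driven β-lactamase reporter and co-transfected muscarinic M1 receptor were treated with compound plus carbachol (1 uM final, an EC50 level) for 5 h at 37 °C. CCF4 loading followed for 1 h at RT; 460/530 nm ratio gave %activity.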
# [3] = Stat Signaling Pathway (AID 446); conditions: ME-180 SIE beta-lactamase reporter, IL-6 stimulated, 5 h; at 7.69 µM (top of the series) unless noted;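 also: ME-180 cervical cancer cells given 40 pM IL-6 alongside compound; SIE-controlled beta-lactamase reporter measured as 460/530 nm FRET emission ratio; top concentration of the series differs between compounds; % is scaled to controls: 0 for no effect and ±100 for the full control effect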
# Procedure, shortened: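 ME-180 SIE-bla cells; overnight plating; cpd + IL-6 40 pM, 5 h, 37 C; LiveBLAzer 2.5 h RT; 460/530 nm emission ratio. Normalized to 300 pM IL-6 and 125 nM JAK inhibitor controls.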
# [4] = biological target: Mitogen-activated protein kinase 10 (Mus musculus) (UniProt Q61831); assay: JNK3 AlphaScreen Assay (AID 530); conditions: JNK3 lysate, c-Jun phosphorylation; activity change, negative = inhibition: at 57.1 µM (top of the series);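 also: kinase came from lysate of stimulated human HepG2 cells; signal reports phosphorylation of biotinylated GST-cJun 1-79 at Ser73 with 10 µM ATP; potency is read from the fitted curve at half-maximal effect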
# Procedure, shortened: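 Inhibitors reduce antibody binding to phosphorylated biotin-cJun, lowering AlphaScreen luminescence. Lysates from HepG2 cells pre-activated by IL-1beta plus TNF-alpha supplied JNK3; compounds were titrated.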
# [5] = biological target: Ubiquitin carboxyl-terminal hydrolase 1 (Homo sapiens) (UniProt O94782); assay: Inhibitors of USP1/UAF1: Pilot qHTS (AID 504865; active = well fitted inhibition curve with a large enough effect; inconclusive = small, poorly fitted or top-dose-only effect;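 also: rhodamine fluorescence freed from ubiquitin-rhodamine substrate followed over time; potency is read from the fitted curve at half-maximal effect; nearly all actives have a fitted effect of over 35% in size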)
# Procedure, shortened: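 Deubiquitinase activity followed as kinetic rhodamine fluorescence release from 150 nM Ub-Rho. 1 nM USP1/UAF1 with compound, after 15 min room-temperature preincubation, in HEPES pH 7.8 buffer containing TCEP, EDTA, BSA and Tween-20.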
# [6] = at 17.2 µM (top of the series) unless noted
# Tags tell the direction and shape of the fitted curve.
# Chain of UniProt O94782 (O94782 whole entry, looked up): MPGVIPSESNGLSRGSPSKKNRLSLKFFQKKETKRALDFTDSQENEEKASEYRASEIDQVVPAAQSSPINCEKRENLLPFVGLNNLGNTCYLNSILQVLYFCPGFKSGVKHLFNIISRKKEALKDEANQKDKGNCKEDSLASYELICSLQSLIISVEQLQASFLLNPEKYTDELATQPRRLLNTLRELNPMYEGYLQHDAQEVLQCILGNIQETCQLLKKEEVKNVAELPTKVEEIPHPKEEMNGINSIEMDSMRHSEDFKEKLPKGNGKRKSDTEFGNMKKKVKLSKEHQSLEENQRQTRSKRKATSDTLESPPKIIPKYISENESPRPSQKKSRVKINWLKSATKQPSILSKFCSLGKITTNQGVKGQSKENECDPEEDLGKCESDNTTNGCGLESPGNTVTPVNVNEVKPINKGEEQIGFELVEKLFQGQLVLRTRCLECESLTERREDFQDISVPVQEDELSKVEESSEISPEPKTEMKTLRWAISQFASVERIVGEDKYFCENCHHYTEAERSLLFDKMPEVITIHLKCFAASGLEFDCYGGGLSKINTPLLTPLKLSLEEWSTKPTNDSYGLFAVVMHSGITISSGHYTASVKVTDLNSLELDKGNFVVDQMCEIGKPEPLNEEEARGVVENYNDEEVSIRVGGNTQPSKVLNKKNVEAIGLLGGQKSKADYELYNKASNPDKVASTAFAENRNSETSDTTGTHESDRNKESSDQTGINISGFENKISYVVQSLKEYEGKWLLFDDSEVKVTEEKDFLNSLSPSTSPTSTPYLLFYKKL
smiles,measurement,setting,value
Cc1cc(N2C(=O)C(=O)/C(=C(/O)c3ccc(F)cc3)C2c2ccc(F)cc2)no1 (stereo not drawn),"activity change, negative = inhibition",[1],inconclusive: -30.6% [inhibitor]
same,"activity change, negative = inhibition",[2]; [6],inconclusive: 32.5% [activator]
Nc1c2c(nc3ccccc13)N(c1ccccc1)CC2,"activity change, negative = inhibition",[1],inconclusive: 40.7% [activator]
same,"activity change, negative = inhibition",[2]; [6],inconclusive: -63.6% [inhibitor]
CC(=O)Nc1ccc(-c2cc(C(=O)O)c3cc4ccccc4cc3n2)cc1,"activity change, negative = inhibition",[1],inactive: 7.67% [at 7.69 µM]
same,"activity change, negative = inhibition",[2]; [6],inactive: 5.02% [at 7.69 µM]
COC(=O)CC1=C(C(=O)OC)C(c2ccncc2)C(C#N)=C(N)O1 (stereo not drawn),"activity change, negative = inhibition",[1],inconclusive: 33.6% [activator]
same,"activity change, negative = inhibition",[2]; [6],inconclusive: -33.2% [inhibitor]
Fc1ccccc1-c1nc(NCCCN2CCOCC2)c2ccccc2n1,"activity change, negative = inhibition",[1],inactive: 0.19%
same,"activity change, negative = inhibition",[2]; [6],inconclusive: 36.6% [activator]
C/C(=N\O)c1c(C)c2ccccc2n1C,"activity change, negative = inhibition",[1],inactive: 2.06%
same,"activity change, negative = inhibition",[2]; [6],inactive: -14.1%
CC1(C)CC(NC(=O)C23CCC(C)(/C(=N/O)C2)C3(C)C)CC(C)(C)N1 (stereo not drawn),"activity change, negative = inhibition",[1],inactive: 1.22%
same,"activity change, negative = inhibition",[2]; [6],inactive: 10.5%
COc1cccc(-c2nc(N3CCCCC3C)c3ccccc3n2)c1O (stereo not drawn),"activity change, negative = inhibition",[1],inconclusive: -30.1% [inhibitor]
same,"activity change, negative = inhibition",[2]; [6],inconclusive: -106% [inhibitor]
COC(=O)NCC12CC3CC(C1)CC(CNC(=O)OC)(C3)C2,"activity change, negative = inhibition",[1],inactive: 3.64%
same,"activity change, negative = inhibition",[2]; [6],inconclusive: -41.2% [inhibitor]
Cc1cc(C)n(S(=O)(=O)/C=C/c2ccccc2)n1,"activity change, negative = inhibition",[1],inconclusive: -52.7% [inhibitor]
same,"activity change, negative = inhibition",[2]; [6],inconclusive: -85.3% [inhibitor]
CN(C)C/C(Cl)=C(\Cl)c1ccccc1,"activity change, negative = inhibition",[1],inconclusive: 37.6% [activator]
same,"activity change, negative = inhibition",[2]; [6],active: -119%
Cc1ccc(S(=O)(=O)N2CCN(c3nc(C(C)C)c4c(c3C#N)CC(C)(C)OC4)CC2)cc1,"activity change, negative = inhibition",[1],inconclusive: 40.1% [activator]
same,"activity change, negative = inhibition",[2]; [6],inconclusive: -53.5% [inhibitor]
same,"activity, negative = inhibition",[3],inconclusive: 97.3% [activator] [at 17.2 µM]
COc1cc(C2C(C#N)=C(N)Oc3cc(N)ccc32)cc(OC)c1OC (stereo not drawn),"activity change, negative = inhibition",[1],inconclusive: 49.4% [activator]
same,"activity change, negative = inhibition",[2]; [6],inconclusive: -72.8% [inhibitor]
CCSc1nc(N)c(C#N)c(-c2ccccc2Cl)c1C#N,"activity change, negative = inhibition",[1],inconclusive: -44.1% [inhibitor]
same,"activity change, negative = inhibition",[2]; [6],inactive: -7.47%
same,"activity, negative = inhibition",[3],inconclusive: -39.6% [inhibitor] [at 17.2 µM]
COc1cc(C(=O)OCCN2CCCCC2)ccc1O,"activity change, negative = inhibition",[1],inconclusive: 0.05% [activator]
same,"activity change, negative = inhibition",[2]; [6],inconclusive: -30% [inhibitor]
CC(=O)O[C@@H]1C(=O)[C@@]2(C)[C@H](O)C[C@H]3OC[C@]3(OC(C)=O)[C@@H]2[C@H](OC(=O)c2ccccc2)[C@@]2(O)C[C@H](OC(=O)[C@@H](O)[C@@H](NC(=O)c3ccccc3)c3ccccc3)C(C)=C1C2(C)C (stereo in doubt),"activity change, negative = inhibition",[1],inconclusive: 38.1% [activator]
same,"activity change, negative = inhibition",[2]; at 17.2 µM (top of the series),inactive: 6.42%
same,"activity change, negative = inhibition",[2]; at 38 µM (top of the series),inactive: 6.57%
same,Potency,[4],"inconclusive: 15.8 µM [activator, partial curve, poor fit]"
same,Potency,[5],"inconclusive: 39.8 µM [inhibitor, partial curve, poor fit]"
CCC(NC(=O)Nc1nnc(C(F)(F)F)s1)(C(F)(F)F)C(F)(F)F,"activity change, negative = inhibition",[1],inactive: 18.4%
same,"activity change, negative = inhibition",[2]; [6],active: -115%
N#CC1=C(SCC(=O)c2ccc(Br)cc2)NC2=C(C(=O)CCC2)C1c1ccco1 (stereo not drawn),"activity change, negative = inhibition",[1],active: -81.5%
same,"activity change, negative = inhibition",[2]; [6],inconclusive: -31.5% [inhibitor]
same,"activity, negative = inhibition",[3],inconclusive: -33.9% [inhibitor] [at 17.2 µM]
Cc1nc2oc(C(=O)c3ccc(Br)cc3)c(N)c2c2c1COC(C)(C)C2,"activity change, negative = inhibition",[1],inconclusive: 46% [activator]
same,"activity change, negative = inhibition",[2]; [6],inactive: 27.3%
O=C(c1cccc(F)c1)N1CCC2(CCCN(Cc3cc(C(F)(F)F)cc(C(F)(F)F)c3)C2)CC1,"activity change, negative = inhibition",[1],inconclusive: 81.6% [activator] [at 7.69 µM]
same,"activity change, negative = inhibition",[2]; [6],inconclusive: -30.6% [inhibitor] [at 7.69 µM]
CC1(C)CC(=O)C=C(NCCO)C1,"activity change, negative = inhibition",[1],inactive: 20.8%
same,"activity change, negative = inhibition",[2]; [6],inactive: 2.7%
COc1cccc(OC)c1OCC(C)CNCC1CCCO1 (stereo not drawn),"activity change, negative = inhibition",[1],inconclusive: 14.1% [activator]
same,"activity change, negative = inhibition",[2]; [6],inactive: -18.8%
N#Cc1nc(-c2ccccc2Cl)oc1N1CCCCC1,"activity change, negative = inhibition",[1],inconclusive: -39.2% [inhibitor]
same,"activity change, negative = inhibition",[2]; [6],inconclusive: -36.1% [inhibitor]
same,"activity, negative = inhibition",[3],inconclusive: 36.6% [activator] [at 17.2 µM]
